Measured values reported in PMC4336329 (PLoS ONE, 2015).
The campaign covered roughly 310,000 compounds. About 14,000 (4.5%) showed an effect of 50% or more. The effect is printed as a negative number. The list shows a part of the results.

Target: human ether-à-go-go-related gene (hERG) potassium channel (human, UniProt Q12809)
Assay: primary screen, population patch clamp on CHO cells stably expressing hERG
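Note: peak tail current of the secondary pulse compared with the same well before compound.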

Chain of human ether-à-go-go-related gene (hERG) potassium channel (Q12809 whole entry, looked up): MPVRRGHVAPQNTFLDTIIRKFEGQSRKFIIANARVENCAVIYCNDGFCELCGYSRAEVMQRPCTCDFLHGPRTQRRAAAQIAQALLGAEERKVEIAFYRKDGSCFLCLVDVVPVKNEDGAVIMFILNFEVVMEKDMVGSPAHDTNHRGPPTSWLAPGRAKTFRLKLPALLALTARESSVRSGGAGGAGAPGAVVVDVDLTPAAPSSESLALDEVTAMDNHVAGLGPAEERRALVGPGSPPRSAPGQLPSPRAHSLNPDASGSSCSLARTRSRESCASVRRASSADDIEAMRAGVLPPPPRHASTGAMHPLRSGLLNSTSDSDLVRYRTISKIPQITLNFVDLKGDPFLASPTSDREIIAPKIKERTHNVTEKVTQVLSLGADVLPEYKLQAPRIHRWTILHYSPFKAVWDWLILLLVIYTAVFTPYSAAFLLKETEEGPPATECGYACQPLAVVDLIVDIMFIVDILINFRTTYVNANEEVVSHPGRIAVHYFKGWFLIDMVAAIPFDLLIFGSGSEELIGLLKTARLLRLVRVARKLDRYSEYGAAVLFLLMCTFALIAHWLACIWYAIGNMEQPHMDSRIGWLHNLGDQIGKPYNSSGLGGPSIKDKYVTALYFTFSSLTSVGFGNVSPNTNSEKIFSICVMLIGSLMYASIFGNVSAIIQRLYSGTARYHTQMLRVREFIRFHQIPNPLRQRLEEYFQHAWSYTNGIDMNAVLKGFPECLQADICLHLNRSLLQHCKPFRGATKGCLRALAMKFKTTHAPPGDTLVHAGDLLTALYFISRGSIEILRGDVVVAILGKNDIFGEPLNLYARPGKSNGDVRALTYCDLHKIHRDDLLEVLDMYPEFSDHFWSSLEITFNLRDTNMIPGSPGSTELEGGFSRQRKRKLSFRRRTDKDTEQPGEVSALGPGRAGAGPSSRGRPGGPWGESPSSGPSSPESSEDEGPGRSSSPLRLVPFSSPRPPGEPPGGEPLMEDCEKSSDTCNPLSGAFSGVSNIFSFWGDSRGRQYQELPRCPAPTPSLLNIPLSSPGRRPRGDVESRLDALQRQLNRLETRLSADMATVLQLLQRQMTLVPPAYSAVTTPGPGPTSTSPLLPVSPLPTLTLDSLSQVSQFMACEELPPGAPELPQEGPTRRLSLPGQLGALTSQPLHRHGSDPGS

Row | Compound | hERG current change (%, negative = inhibition) at 10uM [%]
1 | Cc1nn(C2CCS(=O)(=O)C2)c(Cl)c1/C=C/C(=O)OCC(=O)Nc1ccccc1OC(F)F (centres unmarked) | -49.2
2 | COc1cccc(-c2ccc(=O)n(CC(=O)NCCN3CCOCC3)n2)c1 | -6.39
3 | CC(C)C1S/C(=N/N=C/c2cccs2)NC1=O (centres unmarked) | 11.8
4 | CC(CCO)Nc1nc2c(c(=O)n(C)c(=O)n2C)n1Cc1cccc(Br)c1 (centres unmarked) | -2.15
5 | COc1ccc(Nc2nc(N)c(C(=O)c3ccc(OC)cc3)s2)cc1 | -52.7
6 | COc1ccc(C(=O)N2CCCC(O)C2)cc1OC1CCN(C(C)C)CC1 (centres unmarked) | 23.8
7 | CC1=NN(c2ccccc2)C(=O)/C1=C\c1cn(C)c2ccccc12 | 19.3
8 | COCC(C)NC(C(=O)Nc1cccc(C(C)=O)c1)c1ccccc1 (centres unmarked) | -5.76
9 | NC(=O)C1CCN(C(=O)C2(NC(=O)Nc3cccc(F)c3)CCCCC2)CC1 | 10.2
10 | CCCc1nc2sc3c(=O)n(N)cnc3c2c2c1COC(C)(C)C2 | 7.41
11 | CCOC(=O)C1C2NC(=O)N(Cc3ccccc3)C1(C)Oc1c(OC)cccc12 (centres unmarked) | 5.29
12 | COc1ccc(Cl)cc1NC(=O)CSc1nc(Nc2ccccc2)nc(N2CCOCC2)n1 | 4.41
13 | CN(CC(=O)Nc1ccc2c(c1)CCC2)CC(=O)Nc1ccccc1Br | -1.6
14 | CCOc1ccc(C2CC(c3cccc(OC)c3OC)n3nnnc3N2)cc1Cl (centres unmarked) | -19.2
15 | Cc1ccccc1Oc1nc(-c2ccccn2)nc2ccccc12 | -10
16 | O=C(CN1CCCCC1)NC(=O)NC1CCCC1 | 6.94
17 | CC(C)CC1(C)NC(=O)N(Cc2cc([N+](=O)[O-])cc3c2OCOC3)C1=O (centres unmarked) | -4.84
18 | Cc1ccc(CN2CCS(=O)(=O)CC2)o1 | -3.44
19 | CCN(CC)c1ccc(/C=C2\C(=O)NC(=S)N(c3ccc(OC)cc3OC)C2=O)o1 | -4.73
20 | C1=Nc2c(Nc3ccccc3)ncnc2Oc2ccccc21 | -2.34
21 | Cc1ccc2[nH]c(C(=O)O)c(NC(=O)[C@@H]3C[C@@H]3c3ccccc3)c2c1 | -2.52
22 | COc1cccc(N(C(=O)CNC(=O)c2ccco2)C(C(=O)NC2CCCCC2)c2cccnc2)c1 (centres unmarked) | 3.87
23 | Cc1cccc(OCCNc2ccc([N+](=O)[O-])cn2)c1 | -21.3

Row | Compound | hERG current change (%, negative = inhibition) at 10uM [%]
24 | Cc1noc(C)c1COc1ccc(C(=O)N2CCN(c3ccccc3F)CC2)cc1 | -55
25 | O=C(NC(=S)Nc1ccc(N2CCOCC2)cc1)c1ccc2c(c1)OCCO2 | 17.3
26 | Cc1ccc(Nc2nc(-c3ccccc3)c(CC(=O)O)s2)cc1 | 31.3
27 | CCOn1c(=O)c(=O)n(OCc2ccccc2)c2ccccc21 | -3.67
28 | O=C(N1CCCCCC1)N1CCN(S(=O)(=O)N2CCOCC2)CC1 | -3.51
29 | CCn1c(C)nc2cc(C(=O)NNC(=O)CCC3CCCC3)ccc21 | 9.18
30 | CCC(=O)N1CCc2cc(S(=O)(=O)NC(C(=O)NC3CCCc4ccccc43)C(C)C)ccc21 (centres unmarked) | -1.57
31 | O=C1NC(c2ccccc2)=C(c2ccc3ccccc3n2)C(c2ccccc2)N1 (centres unmarked) | 6.13
32 | CCCN1C(=O)/C(=C/c2ccc(C)s2)NC1=S | 15.8
33 | O=C(c1ccccc1F)N1CCC(O)(c2cccnc2)CC1 | 5.56
34 | CN1C(=O)/C(=C/c2cc3c(cc2Br)OCO3)NC1=S | 20.5
35 | Br.CCCCN1C2=NCCCN2c2cc(C)c(C)cc21 | -65.4
36 | CCN(C(=O)COc1ccccc1)c1nnc(-c2cccnc2)s1 | 8.69
37 | CSc1nnc(-c2ccc(C(F)(F)F)cn2)o1 | 11.7
38 | O=S(=O)(/N=S1/CC=CCN1S(=O)(=O)c1ccccc1)c1ccccc1 (centres unmarked) | 10.6
39 | CC1CCCC(C)N1C(=O)COC(=O)CNC(=O)c1ccccc1F (centres unmarked) | 17.2
40 | Cc1ccc(CCNC(=O)C2CCCN(c3nc4ccccc4o3)C2)cc1 (centres unmarked) | -26.9
41 | NC(=O)c1ccc(Oc2ccc(Cl)c3ccccc23)c([N+](=O)[O-])c1 | 3.41
42 | C=CCn1c(SCc2cc(C(=O)OC)c(C)o2)nnc1-c1ccncc1 | -16.2
43 | CCOC(=O)C1=C(CNCc2ccc(F)cc2)NC(=O)NC1c1cccc([N+](=O)[O-])c1 (centres unmarked) | -29.1
44 | O=C(Nc1ccc(F)cc1)c1cc2cc(Cl)ccc2[nH]1 | -14.8
45 | Cc1ccccc1NC(=O)Cc1c[nH]c2ccccc12 | 14.4
46 | Cc1cccc(CN2CCc3c(OCC(=O)N4CCCc5ccccc54)cccc3C2=O)c1 | 7.12

Row | Compound | hERG current change (%, negative = inhibition) at 10uM [%]
47 | Cc1noc(C)c1CSCC(=O)Nc1ccc(S(C)(=O)=O)cc1 | 15.2
48 | CC(C(=O)NCc1cccc(Cl)c1)N1C(=O)c2ccccc2C1=O (centres unmarked) | 5.05
49 | CC(CCCC(C)(C)O)NC(=O)c1cc(COc2ccc3ncccc3c2)on1 (centres unmarked) | 5.7
50 | O=[N+]([O-])c1cccc(N/N=C/c2cccc3ccccc23)c1 | 1.97
51 | O=C(Nc1nnc(COc2ccccc2)s1)C1CCN(S(=O)(=O)c2ccc(Cl)cc2)CC1 | 1.8
52 | COc1ccc(OC)c(/C=C/C(=O)OCC(=O)Nc2cccc(Oc3ccccc3)c2)c1 | 26.9
53 | Cc1c(Cl)cccc1NC(=O)CSc1nccn1C | 7.09
54 | COc1cccc(-n2cc3c(=O)n(C)c(=O)n(C)c3c2)c1 | -3.89
55 | CCOC(=O)COc1ccc(S(=O)(=O)Nc2ccc3c(c2)OCCO3)cc1 | -3.24
56 | CCOc1ccccc1-n1nnnc1SCC(=O)NC(=O)Nc1ccc2c(c1)OCCO2 | 14.6
57 | COc1cccc(C(=O)C2CCCN(C(=O)c3ccccc3Cl)C2)c1 (centres unmarked) | 5.15
58 | O=S(=O)(NCc1cn2ccccc2n1)c1cccs1 | 4.2
59 | Cc1cccc(CSCc2nnc(N)s2)c1 | 0.493
60 | COc1ccc(/C=C(\NC(=O)c2ccccc2)C(=O)N/N=C/c2cccnc2)cc1 | -5.03
61 | Cc1ccc(N(Cc2ccccc2F)S(C)(=O)=O)c(C)c1 | 0.0796
62 | CCOC(=O)[C@@H]1[C@H]2COc3ccccc3[C@H]2N2C(=O)N(c3ccc(F)cc3)C(=O)[C@]12C | -4.36
63 | Cc1sc(NC(=O)CN2CCOCC2)c(C#N)c1C | 6.15
64 | CCOC(=O)C1=C(N)Oc2c(c(=O)[nH]c3ccccc23)C1c1ccccc1 (centres unmarked) | 0.203
65 | COc1ccc(OC)c(N/C=C/C(=O)c2ccccc2)c1 | 13.7
66 | CC(NC(=O)c1ccco1)C(=O)OC(C)C(=O)NCc1ccccc1 (centres unmarked) | 21.7
67 | COc1ccccc1C(=O)NC(CCSC)C(=O)NNC(=O)c1ccc(F)cc1 (centres unmarked) | 1.77
68 | O=C(O)c1nc(NCCc2ccccc2)ncc1Cl | 14
69 | CCn1cc(CNc2nc3nonc3nc2N2CCCCC2)cn1 | -4.36

Row | Compound | hERG current change (%, negative = inhibition) at 10uM [%]
70 | Cc1cc(/C=C2/SC(=O)N(CC(=O)OC(C)C)C2=O)c(C)n1C | -9.2
71 | CCc1nonc1NC(=O)c1oc2ccc(Br)cc2c1C | 16.2
72 | O=C(CCN1CCCCC1)Nn1c(=S)[nH]c2ccccc2c1=O | 4.05
73 | O=C(NN1C(=O)NC2(CCCCC2)C1=O)c1cc2ccccc2o1 | 46
74 | C=C(C)Cn1c(C)cc(C)c(S(=O)(=O)c2ccccc2C)c1=O | 11
75 | COc1cccc(N(CC(=O)N2CCN(c3ccccc3OC)CC2)S(C)(=O)=O)c1 | -5.04
76 | COc1cc2c(c3oc(-c4ccccc4)cc(=O)c13)C=CC(C)(C)O2 | -11.4
77 | Cc1ccc(S(=O)(=O)c2cnc(-c3ccccc3)nc2N2CCCCC2)cc1 | 25.7
78 | O=C(NCc1cccnc1)c1ccc(CN2CCc3ccccc3C2)cc1 | -1.76
79 | N/C(=N\[N+](=O)[O-])N1CCN(C(=O)c2ccccn2)CC1 | 22.2
80 | O=C(NCc1ccccc1)C(c1ccccc1)N(C(=O)c1csnn1)c1ccccc1 (centres unmarked) | 13.2
81 | COc1ccc2oc(=O)c(C(=O)N3CCc4ccccc43)cc2c1 | 15.8
82 | Cc1c(C(O)CN2CCN(Cc3ccc4c(c3)OCO4)CC2)c2ccccc2n1C (centres unmarked) | -75.6
83 | COC(=O)CSc1nnc(C)n1-c1cccc(OC)c1 | 4.54
84 | NC(=O)c1ccsc1NC(=O)c1ccc2c(c1)CCCC2 | 1.38
85 | O=C(NC1CCCCCC1)C1CCN(S(=O)(=O)N2CCC3(CC2)OCCO3)CC1 | 7.74
86 | CCOC(=O)c1nsnc1NCCCl | 11.5
87 | O=S(=O)(c1ccc(OCC(O)CN2CCC(Cc3ccccc3)CC2)cc1)N1CCOCC1 (centres unmarked) | -44.4
88 | CCN(CC)S(=O)(=O)c1ccc(N2CCOCC2)c(NCC(=O)Nc2ccc(F)cc2)c1 | 12.3
89 | CSCCC(NS(=O)(=O)c1ccc(C)cc1)C(=O)N1CCCC1 (centres unmarked) | 2
